In all, about 48,000 compounds went through this assay and about 450 (0.94%) were called active. Not shown: some 19% with an inconclusive outcome. Calls follow the shape of the dose curve; as a rule, active = well fitted inhibition curve with a large enough effect; inconclusive = small, poorly fitted or top-dose-only effect; inactive = no such curve, though single readings can be large or run the other way. The list shows a part of the results.
Assay: Primary qHTS for Identification of Small Molecule Inhibitors of Huntingtin Promoter Activity; also: nearly all actives have a fitted effect of over 50% in size
Details: HEK293 HTT promoter firefly luciferase reporter (activity 0% = vehicle and -100% = no light), 24 h; series mostly up to 57.5 µM; activity change, negative = inhibition: at the top concentration
In short: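 Quantitative HTS used concentration series of up to 57.5 uM final on HEK293 luciferase reporter cells, 24 h at 37 degrees C. Readout was Dual-Glo firefly luminescence.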
With `CCn1cc(CCC(=O)NCc2ccccc2OC)c2ccccc21` the “activity change, negative = inhibition” value was inactive: -25.4%. In the case of `CC1=C(C(=O)Nc2ccccc2)C(c2cccnc2)n2nc(SCc3ccccc3Cl)nc2N1` (centres undefined), the “activity change, negative = inhibition” value is reported as inactive: -4.26%. With `CCOC(=O)Cn1c(=O)n(C2CCCCC2)c2nc(-c3cccc(F)c3)nc(C(N)=O)c21` the “activity change, negative = inhibition” value was inactive: -12.6%. In the case of `CC(C)c1c(C(=O)Nc2ccccc2)c(-c2ccccc2)c(-c2ccc(F)cc2)n1CC[C@H](O)C[C@@H](O)CC(=O)O`, the “activity change, negative = inhibition” value is reported as inactive: 6%. With `Cc1ccc(S(=O)(=O)c2cc3cc(C(=O)O)ccc3oc2=O)cc1` the “activity change, negative = inhibition” value was inactive: -18.5%. For `CCOC(=O)c1c(NC(=O)COc2cc(C)ccc2C(C)C)sc(C)c1C`, the “activity change, negative = inhibition” value was inactive: -4.33%. In the case of `CCOc1cccc(C(c2c(C)n(C)n(-c3ccccc3)c2=O)c2c(C)n(C)n(-c3ccccc3)c2=O)c1OC`, the “activity change, negative = inhibition” value is reported as inactive: 0.497%. With `CCOc1ccc(NC(=O)c2nn(C)c3c2CS(=O)(=O)c2ccccc2-3)cc1` the “activity change, negative = inhibition” value was inactive: -12.3%. With `CCOc1ccccc1NC(=O)Cn1c(=O)n(-c2ccc(F)cc2)c(=O)c2sc3ccccc3c21` the “activity change, negative = inhibition” value was inactive: -4.98%. For `COc1ccc(CCNC(=O)CCCn2c(=O)c3ccccc3n(CC(=O)Nc3cc(Cl)ccc3C)c2=O)cc1OC`, the “activity change, negative = inhibition” value was inactive: -9.01%. For `Cc1ccccc1-c1noc(CCC(=O)Nc2cccc(C)c2C)n1`, the “activity change, negative = inhibition” value was inactive: -13.9%. With `Cc1ccc2nc(-c3cc(NC(=O)/C=C/c4ccccc4)ccc3Cl)oc2c1` the “activity change, negative = inhibition” value was inactive: 30%. For `COc1ccc(C(=O)Nc2ccc3nc(N4CCC(C)CC4)cc(C)c3c2)cc1`, the “activity change, negative = inhibition” value was inactive: 11.9%. For `COc1cc(Cl)c(C)cc1NC(=O)c1cn(C2CCCC2)c(=O)c2c1c1ccccc1n2C`, the “activity change, negative = inhibition” value was inactive: 5.14%. With `CCOc1ccc(-c2nnc(SCC(=O)NCCc3ccc(OC)c(OC)c3)nc2-c2ccc(OCC)cc2)cc1` the “activity change, negative = inhibition” value was inactive: 0.662%. For `CCOCCCNC(=O)C(Cc1ccccc1)NS(=O)(=O)c1ccc2c(c1)c(=O)n(C)c(=O)n2C` (centres undefined), the “activity change, negative = inhibition” value was inactive: -7.57%. In the case of `COc1ccc(-c2nc(CSc3nncn4c3cc3occc34)c(C)o2)cc1`, the “activity change, negative = inhibition” value is reported as inactive: -18.7%. For `CCc1ccc(-c2[nH]c3c(c2-c2sc(C)c(C(=O)OC)c2O)c(=O)[nH]c(=O)n3C)cc1`, the “activity change, negative = inhibition” value was inactive: -5.15%. With `Cc1nn(C(=O)c2ccc(Br)cc2)c(C)c1S(=O)(=O)N1CCOCC1` the “activity change, negative = inhibition” value was inactive: -13%. For `Cc1coc2c(C)c3oc(=O)c(CCC(=O)NCCc4ccccc4)c(C)c3cc12`, the “activity change, negative = inhibition” value was inactive: -4.72%. With `Cn1c(NCCO)nc2c1c(=O)n(Cc1cccc(F)c1)c(=O)n2C` the “activity change, negative = inhibition” value was inactive: 7.63%. In the case of `COc1cccc(/C=C/c2nc(C#N)c(NCCc3ccc(OC)c(OC)c3)o2)c1`, the “activity change, negative = inhibition” value is reported as inactive: -26.8%. In the case of `COC(=O)c1ccc2c(c1)N(Cc1ccc(F)cc1)C(=O)c1ccccc1S2`, the “activity change, negative = inhibition” value is reported as inactive: -23.4%. In the case of `CCCCN1C(=O)C(O)(c2c[nH]c3ccccc23)c2cc(Br)ccc21` (centres undefined), the “activity change, negative = inhibition” value is reported as inactive: -16.9%. With `CCOc1ccc(CCNC(=O)c2cnc3c(-c4ccc(F)cc4)c(C)nn3c2C)cc1OCC` the “activity change, negative = inhibition” value was inactive: -6.79%. For `Cc1ccc(NC(=O)Cn2c(=O)n(Cc3ccco3)c(=O)c3sc4ccccc4c32)cc1C`, the “activity change, negative = inhibition” value was inactive: -5.3%. With `COc1ccc2c(c1)sc1ncc(C(=O)NCc3ccc(OC(C)C)cc3)c(=O)n12` the “activity change, negative = inhibition” value was inactive: -1.12%. With `Oc1c(C(c2ccc(Cl)cc2)N2CCC3(CC2)OCCO3)sc2nc(-c3ccco3)nn12` (centres undefined) the “activity change, negative = inhibition” value was inactive: 9.86%. For `O=C(Cn1c(=O)oc2ccccc21)Nc1ccc(C(=O)O)cc1`, the “activity change, negative = inhibition” value was inactive: -18.6%. In the case of `COc1cc(NC(=O)c2cccc3c2C(=O)N(C2CCCCC2)C3)cc(OC)c1`, the “activity change, negative = inhibition” value is reported as inactive: 10.4%. For `CCOc1ccccc1NC(=O)CSc1nc2cc(OC)c(OC)cc2c2nc(-c3ccccc3)nn12`, the “activity change, negative = inhibition” value was inactive: 21.3%. In the case of `Cc1ccc(C)c(CN2C(=O)c3ccccc3S(=O)(=O)c3ccc(C(=O)N4CCN(c5ccccc5)CC4)cc32)c1`, the “activity change, negative = inhibition” value is reported as inactive: -18.8%. For `C#CCSc1nc2sc3c(c2c(=O)n1Cc1ccccc1)CCCC3`, the “activity change, negative = inhibition” value was inactive: -22.8%. With `COc1ccccc1OCCSc1nc2ccccc2n1CC(=O)N1CCOCC1` the “activity change, negative = inhibition” value was inactive: 3.95%. In the case of `COc1ccc(NC(=O)c2sc3nc(-c4ccc(OC)cc4)cc(C(F)(F)F)c3c2N)cc1`, the “activity change, negative = inhibition” value is reported as inactive: -13.6%. For `Cc1ccccc1Nc1c(-c2ccco2)nc2c(C)cccn12`, the “activity change, negative = inhibition” value was inactive: -12.5%. For `CC1CCCCN1S(=O)(=O)c1ccc(C(=O)Nc2sc3c(c2C(N)=O)CC(C)(C)NC3(C)C)cc1` (centres undefined), the “activity change, negative = inhibition” value was inactive: -11.5%. With `Cc1ccc(NC(=O)CCS(=O)(=O)c2cccc3nonc23)cc1Cl` the “activity change, negative = inhibition” value was inactive: -18.9%. With `Cc1cccc(NC(=O)Cn2c(=O)n(CCCS(=O)(=O)C3CCCCC3)c(=O)c3ccccc32)c1` the “activity change, negative = inhibition” value was inactive: -16.1%. With `CCOC(=O)c1ccc(-n2c(C)nc3c(cnn3-c3ccc(Cl)cc3)c2=O)cc1` the “activity change, negative = inhibition” value was inactive: -14.7%. In the case of `CCOCCCNC(=O)c1[nH]c2cc(C)ccc2c1Sc1ccc(Cl)cc1`, the “activity change, negative = inhibition” value is reported as inactive: 9.01%. In the case of `COc1ccc(CCNC(=O)c2c(O)nc3c(C)cccn3c2=O)cc1`, the “activity change, negative = inhibition” value is reported as inactive: 1.82%. With `CCOCCc1nn2c(=O)cc(COC(=O)c3ccccc3NC(=O)C3CCCCC3)nc2s1` the “activity change, negative = inhibition” value was inactive: -14%. With `COc1cc(OC)c(N(C)C(=O)CCNC(=O)Cn2cnc3ccccc3c2=O)cc1Cl` the “activity change, negative = inhibition” value was inactive: -7.38%. With `CN(C)CCNC(=O)Cn1c(=O)c2cccn2c2ccc(F)cc21` the “activity change, negative = inhibition” value was inactive: -2.28%. In the case of `COc1ccc(CNC(=O)c2ccc(NC(=O)N3CCSc4ncccc43)cc2)cc1OC`, the “activity change, negative = inhibition” value is reported as inactive: -2.41%. With `CCOC(=O)c1c(NC(=O)CCCOc2ccc(Cl)cc2)sc2c1CCC2` the “activity change, negative = inhibition” value was inactive: -7.49%. With `COc1ccc(OC)c(-c2noc(N3CCN(c4ccc(C(C)=O)cc4)CC3)n2)c1` the “activity change, negative = inhibition” value was inactive: -28.4%. With `COc1ccc(-c2oc3ncn4nc(COc5ccc(C)cc5)nc4c3c2-c2ccc(OC)cc2)cc1` the “activity change, negative = inhibition” value was inactive: -9.31%. For `COc1ccc(Cc2ccc(NC(N)=O)cc2)cc1-c1cccc(Cl)c1`, the “activity change, negative = inhibition” value was inactive: -2.12%. For `CCOC(=O)Cn1c(=O)oc2cc(S(=O)(=O)N3CCN(c4ccccc4OC)CC3)ccc21`, the “activity change, negative = inhibition” value was inactive: -16.2%. With `O=C(NCCc1csc2nc(-c3ccccc3F)nn12)c1ccccc1C(F)(F)F` the “activity change, negative = inhibition” value was inactive: -6.82%. For `COc1cccc(CN(C(=O)c2ccc(C(C)(C)C)cc2)C2CCS(=O)(=O)C2)c1` (centres undefined), the “activity change, negative = inhibition” value was inactive: -9.28%. For `CCCOc1ccc(C(=O)Nc2ccc3nn(-c4ccc(OC)c(Cl)c4)nc3c2)cc1`, the “activity change, negative = inhibition” value was inactive: 12.4%. For `CCOc1ccc(-c2nnc(SCC(=O)Nc3cc(F)ccc3F)o2)cc1`, the “activity change, negative = inhibition” value was inactive: -9.69%. With `COc1cccc2c1Oc1nc(-c3ccccc3)nc(SCC(=O)Nc3ccccc3)c1C2` the “activity change, negative = inhibition” value was inactive: -10.3%. In the case of `COc1ccc(N(CC(=O)NCCc2ccccc2)S(=O)(=O)c2ccc(OC)c(OC)c2)cc1`, the activity change, negative = inhibition is reported as inactive: -17% [at 11.5 µM]. In the case of `Cc1ccc(NC(=O)/C(C#N)=C/c2cc(C)n(-c3ccc(Br)cc3)c2C)cc1C`, the “activity change, negative = inhibition” value is reported as inactive: -18.5%. In the case of `Cc1ccc(CCNC(=O)c2ccc(CS(=O)(=O)c3ccc(Cl)cc3)o2)cc1`, the “activity change, negative = inhibition” value is reported as inactive: 0%.
